# The campaign covered roughly 310,000 compounds. About 2,200 (0.71%) showed an effect of 50% or more. Effects have a minus sign here. This is one part of the list.
# Target: human ether-à-go-go-related gene (hERG) potassium channel (human, UniProt Q12809)
# Experiment: primary screen, population patch clamp on CHO cells stably expressing hERG
# Chain of human ether-à-go-go-related gene (hERG) potassium channel (Q12809 whole entry, looked up): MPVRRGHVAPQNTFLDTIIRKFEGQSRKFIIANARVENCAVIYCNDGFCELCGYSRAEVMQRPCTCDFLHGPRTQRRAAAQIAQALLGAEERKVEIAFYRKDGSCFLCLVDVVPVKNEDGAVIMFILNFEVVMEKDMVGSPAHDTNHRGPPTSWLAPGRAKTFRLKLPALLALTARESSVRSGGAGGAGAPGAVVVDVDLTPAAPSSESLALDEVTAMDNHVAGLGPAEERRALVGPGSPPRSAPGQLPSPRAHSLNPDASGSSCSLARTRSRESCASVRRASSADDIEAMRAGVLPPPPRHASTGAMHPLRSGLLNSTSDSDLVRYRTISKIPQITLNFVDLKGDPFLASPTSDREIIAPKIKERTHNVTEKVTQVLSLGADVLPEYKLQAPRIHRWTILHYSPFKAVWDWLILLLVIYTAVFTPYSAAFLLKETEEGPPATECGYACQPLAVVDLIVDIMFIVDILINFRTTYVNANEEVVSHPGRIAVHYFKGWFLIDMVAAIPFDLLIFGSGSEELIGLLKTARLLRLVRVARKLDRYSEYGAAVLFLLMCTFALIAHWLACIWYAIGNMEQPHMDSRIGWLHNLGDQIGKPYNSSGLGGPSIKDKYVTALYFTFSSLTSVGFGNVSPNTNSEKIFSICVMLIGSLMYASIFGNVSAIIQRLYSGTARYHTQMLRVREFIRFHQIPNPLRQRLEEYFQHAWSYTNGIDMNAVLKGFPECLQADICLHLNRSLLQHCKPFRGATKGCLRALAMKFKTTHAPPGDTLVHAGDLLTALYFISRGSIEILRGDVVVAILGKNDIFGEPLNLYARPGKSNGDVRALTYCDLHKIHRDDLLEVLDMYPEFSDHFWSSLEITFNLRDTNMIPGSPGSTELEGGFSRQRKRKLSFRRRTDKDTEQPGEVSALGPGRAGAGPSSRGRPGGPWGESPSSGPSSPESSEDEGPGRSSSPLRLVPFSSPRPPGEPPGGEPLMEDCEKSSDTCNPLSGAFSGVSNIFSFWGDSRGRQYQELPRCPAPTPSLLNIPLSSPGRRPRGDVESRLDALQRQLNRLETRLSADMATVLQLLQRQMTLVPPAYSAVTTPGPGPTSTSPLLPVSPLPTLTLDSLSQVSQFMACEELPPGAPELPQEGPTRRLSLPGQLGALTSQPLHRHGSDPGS
row,SMILES,"hERG current change (%, negative = inhibition) at 1uM [%]"
1,COc1cc(/C=C/CO)cc(OC)c1O[C@@H]1O[C@H](CO)[C@@H](O)[C@H](O)[C@H]1O,11.5
2,CN1C(=O)C(C)(C)c2cc(S(=O)(=O)N3CCC(C(=O)Nc4ccc(Cl)cc4)CC3)ccc21,9.12
3,c1ccc2[nH]c(-c3cscn3)nc2c1,12.7
4,CCCNC(=O)CN(c1ccc(F)c(Cl)c1)S(C)(=O)=O,12.6
5,CCN(CC)C(=O)CSc1nnc(-c2ccccn2)n1Cc1ccccc1,-4.89
6,Clc1ccc(OCCN2CCCCC2)cc1Cl.O=C(O)C(=O)O,-6.65
7,COC(=O)c1ccccc1NC(=O)C1CC(=O)N(C2CCCCC2)C1 (centres unmarked),-16.9
8,CCN(CC)S(=O)(=O)c1ccc(C(C)NC(=O)C2CCCN2C(=O)c2cccs2)cc1 (centres unmarked),-2.55
9,COC/C=C/C1=CC2=CC(=O)C(C)(OC(=O)C3CCCC3)C(=O)C2=CO1 (centres unmarked),7.45
10,CCN(C(=O)c1ccco1)C1C2CC3CC(C2)CC1C3 (centres unmarked),13.1
11,CN(C)S(=O)(=O)c1cccc(C(=O)NCC(C)(C)CNC(=O)c2cccc(S(=O)(=O)N(C)C)c2)c1,13.9
12,O=C(NCCc1ccccc1)c1ccc(NS(=O)(=O)c2ccc3[nH]c(=O)[nH]c3c2)cc1,17
13,CCOCCCNC(=O)C1CCCN1S(=O)(=O)c1ccc(Cl)cc1 (centres unmarked),10.6
14,COc1ccccc1NC(=O)c1ccc(S(=O)(=O)N2CCC(C)CC2)cc1,6.54
15,CCCCNC(=S)N/N=C/c1ccc(OCC(=O)Nc2c(C)cc(C)cc2C)c(OC)c1,6.64
16,Cc1ccc(Nc2nc(C)cc(C)c2C(N)=O)cc1,12.1
17,COc1ccccc1NC(=O)CSc1nnc(COc2ccccc2C)o1,9.55
18,Cc1ccc2nc3c(c(N)c2c1)CCN3C.O=C(O)C(=O)O,-0.993
19,Cc1ccc(S(=O)(=O)N2CCN(C(=O)N3CCOCC3)C2c2ccc(N(C)C)cc2)cc1 (centres unmarked),-5.9
20,O=C(Nc1ccc(F)cc1)NC1(C(=O)NCc2ccco2)CCCCC1,19.5
21,CC1CCN(C(=O)CN(c2ccc3c(c2)OCCO3)S(=O)(=O)c2ccccc2)CC1,0.358
22,Cc1oc(S(=O)(=O)N(C)C)cc1C(=O)Nc1ccc(F)cc1,9.97
23,CC(C)(C)c1ccc(C(=O)/C=C2\NC(=O)CS2)cc1,1.5

row,SMILES,"hERG current change (%, negative = inhibition) at 1uM [%]"
1,CCC(C)(C)NC(=O)C(c1ccc(C)cc1)N(Cc1ccco1)C(=O)CCC(=O)Nc1nccs1 (centres unmarked),11.8
2,CCCCn1c(N)c(N(CCOC)C(=O)c2cc(C)oc2C)c(=O)[nH]c1=O,-1.55
3,COc1ccc(S(=O)(=O)NC2CC3CCC2C3)cc1Br (centres unmarked),6
4,COc1cc(/C=C2\CC/C(=C\c3ccc(OCCO)c(OC)c3)C2=O)ccc1OCCO,17.2
5,CCOc1ccc(-c2n[nH]c(=S)c3ccccc23)cc1,11.3
6,O=C(Nc1nnc(Cc2ccc(F)cc2)s1)Nc1ccccc1F,14.7
7,COc1cc(CN2CCC(n3nccc3NC(=O)C3CC3)CC2)cc(OC)c1,-29.5
8,CC(Sc1nc2nn(-c3ccccc3)c(=O)c-2c2n1CCCCC2)C(N)=O (centres unmarked),1.34
9,COC(=O)C1=C(c2ccc(Cl)c(C(F)(F)F)c2)C[C@@H]2CC[C@H]1N2C,7.73
10,CC1CCCCC1NC(=O)C1CCN(c2c3c(nc4ncnn24)CCC3)CC1 (centres unmarked),9.65
11,C/C(=N\Nc1nc(N)cc(Cl)n1)c1cccc(N)c1,-6.08
12,CCn1cnc2c(Nc3cc(F)cc(F)c3)nc(C#N)nc21,19.4
13,C=CCc1ccccc1OCC(O)CNC1CCCC1.Cl (centres unmarked),15.5
14,O=C1c2ccccc2S(=O)(=O)N1CCOc1ccccc1,10.7
15,Cc1ccsc1/C=N/NC(=O)c1c[nH]c2ccccc12,12
16,CCn1c(SCC(=O)N(Cc2ccccc2)C2CCS(=O)(=O)C2)nc2ccccc2c1=O (centres unmarked),-12.2
17,O=C(/C=C\c1ccccc1)NCC(=O)N/N=C/c1ccc(O)cc1O,4.12
18,COc1cccc(NC(=O)CSc2ccc3nnc(CCNC(=O)c4ccccc4)n3n2)c1,19.1
19,Cc1ccc(C(=O)COC(=O)CNC(=O)CNC(=O)c2ccc(C)cc2)cc1,-0.593
20,CN(C)CCNC(=O)NC(=O)c1ccc(Cl)cc1,3.99
21,CC(=O)NC(c1ccc(C(C)C)cc1)c1ccc2cccnc2c1O (centres unmarked),16.1
22,Cc1ccc(S(=O)(=O)NC(Cc2cnc[nH]2)C(=O)O)cc1 (centres unmarked),10.4
23,O=C(O)c1ccc2ccc3ccccc3c2c1,4.22

row,SMILES,"hERG current change (%, negative = inhibition) at 1uM [%]"
1,CSc1ccccc1NC(=O)c1cc(C)on1,11
2,CCC(=O)Nc1cccc(-c2nc3ncccc3o2)c1C,12.3
3,O=C(NCc1ccc2c(c1)OCO2)c1ccc(Cl)s1,8.13
4,CC(=O)Nc1ccc(C(=O)NNC(=O)c2ccc(Cl)cc2)cc1,9.32
5,CCc1nnc(NS(=O)(=O)c2ccc(NC(=O)COc3ccc(Cl)c(C)c3)cc2)s1,13.5
6,Nn1c(COc2ccccc2F)nnc1SCC(=O)NC1CCCC1,9.93
7,Cc1ccc(NC(=O)C2CC(=O)n3ncnc3N2)cc1C (centres unmarked),6.92
8,CN(C)C(=O)c1sccc1Oc1ccc(F)cc1[N+](=O)[O-],11.7
9,O=C(CN1C(=O)c2ccccc2S1(=O)=O)Nc1ccon1,14.3
10,Cc1ccc(CN2CCN(/N=C/C=C/c3ccccc3[N+](=O)[O-])CC2)cc1,0.197
11,CS(=O)(=O)NCCn1ccc2ccccc21,3.22
12,Cc1nnc(NC(=O)Oc2ccccc2)s1,8
13,CCCNC(=S)NCCN1CCCCC1.O=C(O)C(=O)O,8.51
14,O=C1/C(=C2/NCCN2C2CC(=O)N(c3ccccc3)C2=O)CC/C1=C\c1ccccc1 (centres unmarked),-2.16
15,COc1ccccc1NCC(=O)n1nc(C)cc1C,15.5
16,COc1ccc(CC(=O)Nc2ccc(-c3cn4ccccc4n3)cc2)cc1OC,16.4
17,Cc1cccc(C)c1NC(=O)CNC(=O)c1c(C)nn(-c2ccccc2)c1C,0.617
18,CCNC(=S)N1CCC(NC(=O)C2CCCCC2)CC1,9.82
19,COc1ccc(C(=O)C2CCCN(Cc3cccc(C)n3)C2)c(OC)c1 (centres unmarked),-58.3
20,O=C(COc1ncnc2ccc(Br)cc12)NC1CCCC1,10.4
21,Cc1nn(CCC#N)c(NC(=O)c2ccccc2)c1P(=O)(Nc1ccc(Br)cc1)N1CCOCC1 (centres unmarked),10.5
22,CC1CCN(S(=O)(=O)c2ccc(C(=O)Nc3nnc(C4=COCCO4)o3)cc2)CC1,12.5
23,Cc1c(OCC(=O)N(C)C)ccc2c(-c3ccccc3)cc(=O)oc12,16.9

row,SMILES,"hERG current change (%, negative = inhibition) at 1uM [%]"
1,O=C(c1ccoc1)N1CCC2(CCCN(Cc3ccc(F)c(F)c3)C2)C1 (centres unmarked),-6.57
2,O=C(NCCc1nc2ccccc2[nH]1)Nc1ccccc1,3.7
3,CC(=O)NC12CC3CC(C1)CC(C(=O)Nc1c(C)n(C)n(-c4ccccc4)c1=O)(C3)C2,10.6
4,CCOC(=O)c1ccc(N2C(=O)CC(N(Cc3ccc4c(c3)OCO4)C(=O)Nc3ccccc3)C2=O)cc1 (centres unmarked),1.35
5,Cc1ccc(-c2c(C(=O)NCc3ccccc3)oc(=O)c3ccccc23)cc1,7.89
6,CC(C)N=C(NS(=O)(=O)c1ccc(Br)cc1)c1ccc(Cl)cc1,8.13
7,c1ccc2c(c1)nc1n2CCS1,8.43
8,CC(CN1CCOCC1)OC(=O)c1ccc(C(C)(C)C)cc1.Cl (centres unmarked),9.47
9,Cc1cccc(NC(=S)NC2CCCCCC2)c1C,15.7
10,COc1ccc(NC(=O)c2ccc3c(c2)N(C)CCS3)cc1,2.55
11,COc1ccc2c(=O)c3c(=O)n(CCc4ccccc4)c(C(C)C)nc3oc2c1,1.01
12,CC(C)(C)NS(=O)(=O)c1ccc(CCC(=O)Nc2ccc3c(c2)OCO3)cc1,5.13
13,CCOC(=O)c1sc(=S)n(C)c1NC(=O)c1ccccc1,14.9
14,CNc1ccccc1C(C)(C)c1cn(-c2ccc([N+](=O)[O-])cc2)nn1,18.1
15,O=C(NCC(F)(F)F)c1nn(Cc2ccccc2)c(=O)c2ccccc12,13
16,O=C(Nc1ccccc1N1CCCC1)c1cc2ccccc2o1,16.4
17,O=C(CN1C(=O)c2ccccc2S1(=O)=O)c1cccc(Br)c1,8.89
18,COc1ccc(NC(=O)c2nc3nccc(C)n3n2)cn1,7.89
19,Br.Cc1ccc(C)c(C(=O)Cn2c(NCCO)nc3ccccc32)c1,13.3
20,COc1cc(NC(=S)NC(=O)c2c(OC)cccc2OC)ccc1NC(=O)c1cccs1,2.41

# Source: paper PMC4336329 (PLoS ONE, 2015)
